Laboratory results published in the BET-seq Pho4 binding data (Le et al. 2018).
This is one part of the list. Values were computed here from the reads of four pooled replicates and scatter widely.

biological target: T1, Pho4 (S. cerevisiae) (UniProt P07270); test: relative binding free energy (BET-seq); higher = weaker binding; details: reference: library average
T1 sequence: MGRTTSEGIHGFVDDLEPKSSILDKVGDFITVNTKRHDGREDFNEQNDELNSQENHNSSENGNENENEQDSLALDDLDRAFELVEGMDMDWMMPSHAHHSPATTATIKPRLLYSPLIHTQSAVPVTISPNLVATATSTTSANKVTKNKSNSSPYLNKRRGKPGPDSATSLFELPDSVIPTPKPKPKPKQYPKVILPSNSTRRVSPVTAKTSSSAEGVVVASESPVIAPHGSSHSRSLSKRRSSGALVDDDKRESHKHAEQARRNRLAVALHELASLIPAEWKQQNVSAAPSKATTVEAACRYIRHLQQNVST

Sequence	relative binding free energy
TGAAGCACGTGTCATT	0.05 kcal/mol
CTGGTCACGTGGAATG	0.14 kcal/mol
GTCGGCACGTGTGAGA	0.05 kcal/mol
GCTCACACGTGGGGGG	-0.03 kcal/mol
GGGCTCACGTGGTAAG	0.27 kcal/mol
AGGTGCACGTGAGGGC	0.08 kcal/mol
AGCGTCACGTGCGGGG	0.06 kcal/mol
TGGAGCACGTGTTTAA	-0.08 kcal/mol
ATTAACACGTGGTGCT	-0.17 kcal/mol
TCGTTCACGTGGGGCG	0.11 kcal/mol
TGTGGCACGTGATCAG	-0.16 kcal/mol
ATTGGCACGTGAGATA	0.06 kcal/mol
GTCATCACGTGGTAGT	0.09 kcal/mol
TGGTCCACGTGTGATA	0.08 kcal/mol
TTGAGCACGTGTCCGG	-0.1 kcal/mol
CTTGGCACGTGGCGGT	-0.22 kcal/mol
GTGGTCACGTGGTTAG	0.18 kcal/mol
CTGTCCACGTGTGGGG	0.03 kcal/mol
TTTATCACGTGGCATA	0.08 kcal/mol
GAGGGCACGTGAGGTA	0.17 kcal/mol
ATGCACACGTGTGTGT	0.09 kcal/mol
GGGCTCACGTGCGGGG	0.24 kcal/mol
TCATACACGTGTTGTA	0.05 kcal/mol

Sequence	relative binding free energy
TTCTGCACGTGGGTGG	-0.12 kcal/mol
GGAGGCACGTGCGTTG	-0.16 kcal/mol
CAGTGCACGTGGTATT	-0.11 kcal/mol
TTTGGCACGTGTTCAT	-0.13 kcal/mol
TATGACACGTGGAAGG	-0.07 kcal/mol
TGTGGCACGTGCATGC	-0.16 kcal/mol
GTCTTCACGTGATGGG	0.45 kcal/mol
ACAGTCACGTGTGCGT	0.16 kcal/mol
GTTAGCACGTGAAAAT	0.4 kcal/mol
CGTGGCACGTGTGGTG	-0.11 kcal/mol
TTCATCACGTGGAGGT	0.11 kcal/mol
GGTTGCACGTGTAAAG	0.08 kcal/mol
ATCTTCACGTGAATTG	0.39 kcal/mol
CGGGTCACGTGTTCAT	0.06 kcal/mol
GGTGGCACGTGGTAAT	0 kcal/mol
TAGGTCACGTGGGAGC	-0.05 kcal/mol
CGTGGCACGTGATTTG	0.17 kcal/mol
CTGAACACGTGTTGTG	-0.06 kcal/mol
TTGGACACGTGTTTTT	0.07 kcal/mol
CGTATCACGTGTTAGT	0.14 kcal/mol
GTTGGCACGTGGGCTG	-0.23 kcal/mol
TGCGGCACGTGCGAGG	-0.23 kcal/mol
GCGGCCACGTGGGTGT	-0.18 kcal/mol

Sequence	relative binding free energy
TCTGGCACGTGTGAGT	0.05 kcal/mol
GTTATCACGTGGTAGA	0 kcal/mol
GAGGACACGTGGAGTA	0.2 kcal/mol
AGGGGCACGTGGGGTA	-0.18 kcal/mol
TGAAACACGTGAGGTT	0.23 kcal/mol
TCGGTCACGTGCGATT	0.19 kcal/mol
TAGTACACGTGGGTAG	-0.08 kcal/mol
AGTGGCACGTGGTATA	-0.2 kcal/mol
CTTGTCACGTGGTGGT	0.05 kcal/mol
TACAGCACGTGTGGGA	-0.05 kcal/mol
GGATTCACGTGGCAGT	0.21 kcal/mol
TTCATCACGTGATGTG	0.25 kcal/mol
TAATTCACGTGATAAG	0.42 kcal/mol
AAACGCACGTGGGGGA	-0.23 kcal/mol
GGAGTCACGTGGGAAG	0.28 kcal/mol
ATAGTCACGTGCTTTA	-0.04 kcal/mol
CCGTTCACGTGTGGGT	0.34 kcal/mol
TATGTCACGTGGCGCT	-0.15 kcal/mol
ACTCGCACGTGTGGGG	-0.11 kcal/mol
GGCTGCACGTGTTATT	0.11 kcal/mol
TCTTGCACGTGTTGCT	-0.07 kcal/mol
TTTGGCACGTGGTAAA	-0.15 kcal/mol
CTTAGCACGTGTGTGG	-0.09 kcal/mol

Sequence	relative binding free energy
GGGAACACGTGAGTTG	0.45 kcal/mol
AGAAGCACGTGGCGTG	-0.08 kcal/mol
CGTGCCACGTGGGGCA	-0.23 kcal/mol
AGCGACACGTGGATTG	0.17 kcal/mol
CAGTGCACGTGTGTTG	-0.02 kcal/mol
ATTACCACGTGGGAGT	-0.1 kcal/mol
TTCTTCACGTGCTGAT	0.2 kcal/mol
TGAGTCACGTGTGTTT	0.18 kcal/mol
AGTGGCACGTGGATTG	-0.14 kcal/mol
GGAAACACGTGTGGGT	0.19 kcal/mol
GATTACACGTGGTCTG	0.08 kcal/mol
AGATGCACGTGCTAGG	-0.2 kcal/mol
TGTCGCACGTGGTCGT	-0.1 kcal/mol
CTAAGCACGTGTGGGA	-0.05 kcal/mol
TTTACCACGTGTGTTA	-0.03 kcal/mol
TTATGCACGTGAGACT	0.14 kcal/mol
TTTATCACGTGTAAAG	0.19 kcal/mol
TGATTCACGTGTCGGC	0.29 kcal/mol
TTAGACACGTGGTGAT	-0.03 kcal/mol
GGGTGCACGTGCCGGT	-0.1 kcal/mol
ATGTTCACGTGAATTA	0.31 kcal/mol
GCAGTCACGTGGAGTG	0.09 kcal/mol
TGCGGCACGTGTTGAT	-0.04 kcal/mol

Sequence	relative binding free energy
GAAGTCACGTGGAGGA	0.21 kcal/mol
GAGTTCACGTGATGTA	0.32 kcal/mol
TAGAGCACGTGGGACG	-0.19 kcal/mol
TGTAGCACGTGCGAGA	-0.03 kcal/mol
TGTGACACGTGGCCTG	-0.04 kcal/mol
GGGGCCACGTGGGTCA	-0.17 kcal/mol
TCGGGCACGTGCGCGG	-0.02 kcal/mol
TCGCGCACGTGTGTTG	-0.1 kcal/mol
TTGCGCACGTGTGAAG	0 kcal/mol
ATAGTCACGTGTGGGG	0.25 kcal/mol
ATGGTCACGTGTCTCG	0.16 kcal/mol
AAGGACACGTGAGGGG	0.23 kcal/mol
TGAGACACGTGGCTAG	0.12 kcal/mol
CGTGGCACGTGGTTCG	-0.14 kcal/mol
ATAAACACGTGGGCGT	-0.19 kcal/mol
TCTGGCACGTGGCTGT	-0.07 kcal/mol
GGCGGCACGTGGCTTT	-0.08 kcal/mol
TGTGACACGTGAGTGA	0.26 kcal/mol
GGGTGCACGTGGGCTG	-0.13 kcal/mol
ATAGACACGTGATGTA	0.16 kcal/mol
TTATTCACGTGAGACG	0.44 kcal/mol
TAGGGCACGTGATACT	0.05 kcal/mol
CAGTGCACGTGGGTGG	-0.13 kcal/mol
